Data on 89 compounds can be found in paper PMC4336329 (PLoS ONE, 2015).

Among all 310,000 compounds or so, about 2,200 (0.71%) showed an effect of 50% or more. The effect is printed as a negative number. The list shows a part of the results.

The assay deals with human ether-à-go-go-related gene (hERG) potassium channel (human, UniProt Q12809). Kind of assay: primary screen, population patch clamp on CHO cells stably expressing hERG.
human ether-à-go-go-related gene (hERG) potassium channel, sequence (Q12809 whole entry, looked up): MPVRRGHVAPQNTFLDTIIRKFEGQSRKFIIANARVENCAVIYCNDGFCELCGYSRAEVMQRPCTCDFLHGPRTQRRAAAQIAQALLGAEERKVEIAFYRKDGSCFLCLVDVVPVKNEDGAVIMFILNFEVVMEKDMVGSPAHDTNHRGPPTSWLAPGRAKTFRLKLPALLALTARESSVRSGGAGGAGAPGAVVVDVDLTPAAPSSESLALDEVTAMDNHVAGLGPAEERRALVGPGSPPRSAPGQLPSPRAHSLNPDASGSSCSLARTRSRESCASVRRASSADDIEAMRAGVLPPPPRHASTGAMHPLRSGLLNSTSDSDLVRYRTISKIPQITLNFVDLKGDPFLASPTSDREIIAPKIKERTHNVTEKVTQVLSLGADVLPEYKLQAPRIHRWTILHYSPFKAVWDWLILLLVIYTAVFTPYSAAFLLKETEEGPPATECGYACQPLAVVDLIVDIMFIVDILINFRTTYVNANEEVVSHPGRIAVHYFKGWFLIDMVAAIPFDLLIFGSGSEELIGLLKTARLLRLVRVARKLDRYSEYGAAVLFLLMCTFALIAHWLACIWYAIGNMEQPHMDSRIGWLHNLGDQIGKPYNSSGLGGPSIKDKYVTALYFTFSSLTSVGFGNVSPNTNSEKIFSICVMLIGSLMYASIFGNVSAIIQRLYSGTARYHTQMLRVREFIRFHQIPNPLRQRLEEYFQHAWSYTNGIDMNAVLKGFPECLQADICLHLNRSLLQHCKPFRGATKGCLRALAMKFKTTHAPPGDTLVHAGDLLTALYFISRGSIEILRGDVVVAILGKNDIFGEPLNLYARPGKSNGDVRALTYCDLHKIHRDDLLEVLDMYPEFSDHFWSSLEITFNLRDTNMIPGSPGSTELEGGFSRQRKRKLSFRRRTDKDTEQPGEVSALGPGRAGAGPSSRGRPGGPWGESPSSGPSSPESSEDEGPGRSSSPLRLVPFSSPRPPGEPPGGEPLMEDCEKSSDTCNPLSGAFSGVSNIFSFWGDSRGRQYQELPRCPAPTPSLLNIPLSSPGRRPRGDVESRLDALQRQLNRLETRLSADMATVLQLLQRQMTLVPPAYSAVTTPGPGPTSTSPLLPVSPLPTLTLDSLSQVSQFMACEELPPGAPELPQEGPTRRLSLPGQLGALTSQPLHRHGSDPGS
As for `CCOc1cc(C(=O)OCC(=O)Nc2ccc(SC(F)F)cc2)cc(OCC)c1OCC`, the “hERG current change (%, negative = inhibition) at 1uM” value is on record as 9.91%.
As for `CC1(C)CC(CC(=O)Nc2ccccn2)C(=O)O1` (centres unmarked), the “hERG current change (%, negative = inhibition) at 1uM” value is listed as -5.36%.
Turning to `CCOc1ccc(NC(=O)CN(C)C(=O)c2cn(-c3ccc(F)cc3)nc2-c2cccc(OC)c2)cc1OCC`, the “hERG current change (%, negative = inhibition) at 1uM” value worked out at 10.6%.
Turning to `COc1ccccc1NC(=O)c1cccc(S(=O)(=O)N2CCN(Cc3ccccc3)CC2)c1`, the “hERG current change (%, negative = inhibition) at 1uM” value is listed as 2.65%.
The same measure for `CCCCNC(=O)NNC(=O)c1ccoc1C`: 12.2%.
Take `CCc1ccc(N(CC(=O)NC2CCCCC2)C(=O)CCC(=O)Nc2ccccn2)cc1`: the “hERG current change (%, negative = inhibition) at 1uM” value amounted to 7.77%.
Consider `CCC(=O)Oc1ccc(C(=O)Nc2cccc(C(=O)c3ccccc3)c2)cc1`, for which the “hERG current change (%, negative = inhibition) at 1uM” value came out at 10.6%.
For `COc1cc(/C=C/C(=O)OCC(=O)Nc2ccc(NC(C)=O)cc2)cc(S(=O)(=O)N2CCc3ccccc32)c1OC`, the “hERG current change (%, negative = inhibition) at 1uM” value was 6.62%.
The same measure for `COC(=O)c1ccc(CN(c2ccccc2Cl)S(C)(=O)=O)cc1`: 28%; for `Cc1ccc(-c2cn(-c3ccccc3)c(SCC(N)=O)n2)cc1C`: -2%; for `c1ccc(-c2csc3nnc(SCc4ccc5c(c4)OCCO5)n23)cc1`: 11%.
For `C#Cc1ccc([C@H]2C=C(C(=O)NCc3ccccc3)O[C@@H](OCC)[C@@H]2CCCO)cc1`, the “hERG current change (%, negative = inhibition) at 1uM” value was 11.8%.
Take `O=C(O)CCC(=O)c1ccc2c(c1)OCCO2`: the “hERG current change (%, negative = inhibition) at 1uM” value was 6.21%.
As for `CNC(=O)C(=O)NCCCN1CCOCC1`, the “hERG current change (%, negative = inhibition) at 1uM” value is 6.67%.
Take `CCCCN1CCNC[C@H]1Cc1ccc(O)cc1`: the “hERG current change (%, negative = inhibition) at 1uM” value is reported as -1.77%.
As to `Cc1ccc(-n2ccc(=O)c(C(=O)Nc3ccc(S(=O)(=O)Nc4onc(C)c4C)cc3)n2)cc1`, the “hERG current change (%, negative = inhibition) at 1uM” value was found to be 13.9%.
Next, `COc1ccc(Br)cc1C(=O)Nc1cccc(-c2nnc(-c3ccco3)o2)c1`: 5.01%; `CSc1sc(C(=O)NNC(C)=O)c2c1C=CCC2`: 11.2%; `O=C(CSc1n[nH]c(-c2ccccc2)n1)Nc1ccccc1O`: 12.6%.
For `CCn1cc(C(=O)OCC(=O)c2cc(C)n(-c3cccc(C(F)(F)F)c3)c2C)c(=O)c2ccc(C)nc21`, the “hERG current change (%, negative = inhibition) at 1uM” value is 15.1%.
Next, `CC(C)(C)c1ccc(C(=O)N2CCNCC2)cc1.Cl`: -15.7%; `Cc1ccc(CN2C3CCCC2CC(NC(=O)c2ccc(C)cc2)C3)cc1` (centres unmarked): -77.3%; `COc1cc(/C=C2/SC(=O)NC2=O)ccc1OC(=O)c1ccco1`: -5.08%.
Next, `CCN1C(=O)/C(=C2/Sc3ccc(OC)cc3N2C)SC1=Nc1cccc(O)c1`: 13.2%; `O=C(COc1ccc(S(=O)(=O)N2CCCC2)cc1)NCCC1=CCCCC1`: 2.14%; `S=c1[nH]nc(-c2cccs2)n1Cc1ccccc1`: 12.8%.
Next, `CCCCn1c(NC(=O)c2ccccc2Cl)c(C#N)c2nc3ccccc3nc21`: 8.64%; `CCOC(=O)c1sc(NC(=O)CSc2nnnn2-c2ccc(C)cc2)c(C(=O)OCC)c1C`: 5.37%.
Consider `C/C(N)=C(/C#N)C(=O)COC(=O)CSc1ccc2ccccc2c1`, for which the “hERG current change (%, negative = inhibition) at 1uM” value turned out to be 4.58%.
Turning to `COc1ccc(C(=O)NC2CCN(S(=O)(=O)c3ccccc3)CC2)cc1`, the “hERG current change (%, negative = inhibition) at 1uM” value was 12.9%.
Consider `CC(=O)c1c(O)c2ccccc2n(C2CCCCC2)c1=O`, for which the “hERG current change (%, negative = inhibition) at 1uM” value turned out to be 0.55%.
As for `CCN1C(=O)C(O)(C2COC(C)(C)CC2=O)c2ccccc21` (centres unmarked), the “hERG current change (%, negative = inhibition) at 1uM” value was determined as 10.2%.
The same measure for `CN(Cc1c(C(=O)N(C)Cc2ccccc2)nc2ccccn12)CC1Cc2ccccc2O1` (centres unmarked): -13.4%; for `O=C(Nc1ccnn1C1CCN(Cc2ccc(CO)o2)CC1)c1ccccc1Cl`: 6.94%; for `COc1ccc(OCc2nnc(SCC(=O)NCc3ccco3)o2)cc1`: 8%.
The same measure for `O=C(COc1ccc(-n2ccnc2)cc1)Nc1cccc(Cl)c1`: -3.13%.
The same measure for `Cc1csc(/C(=N/OC(=O)c2ccco2)C(N)=O)n1`: 11.2%.
`CCOC(=O)N1CCC(NC(=O)c2cc(C(=O)NCc3cccc(Cl)c3)ccc2CO)CC1`: the “hERG current change (%, negative = inhibition) at 1uM” value is given as 11.5%.
The same measure for `COc1ccccc1NC(=O)C(C)OC(=O)COc1cccc2c1OC(C)(C)C2` (centres unmarked): 1.18%; for `COc1ccc(NC2CCCN(C(=O)c3ccccc3C(F)(F)F)C2)cc1` (centres unmarked): 9.2%; for `COc1ccc(-c2nnc(SC(C)C(=O)Nc3nccs3)n2-c2ccccc2)cc1OC` (centres unmarked): -4.2%.
With `CN(C)CCCn1c(SCC(=O)N2CC(=O)Nc3ccccc32)nc2ccccc2c1=O`, the “hERG current change (%, negative = inhibition) at 1uM” value was determined as 9.8%.
Turning to `CC(=O)c1cc(OC(=O)N2CCOCC2)ccc1OC(=O)N1CCOCC1`, the “hERG current change (%, negative = inhibition) at 1uM” value stood at 6.41%.
The same measure for `CCc1nc2oc3ccccc3c(=O)c2cc1C(=O)OC`: 9.54%.
The same measure for `O=C(CSc1ccccn1)Nc1cccc(NC(=O)CSc2ccccn2)n1`: -1.96%; for `Cl.N#CCCNCC1(c2ccccc2)CCCC1`: 14%; for `COc1cc(NC(=O)c2sc(C)nc2C)c(OC)cc1NC(=O)c1ccccc1`: 7.62%.
In the case of `Cc1ccc(S(=O)(=O)N2CCc3ccccc3C2CC(=O)O)cc1` (centres unmarked), the “hERG current change (%, negative = inhibition) at 1uM” value is 0.723%.
As for `CC(C)c1ccc(C(=O)NNC(=O)C2CC=CCC2C(=O)O)cc1` (centres unmarked), the “hERG current change (%, negative = inhibition) at 1uM” value stood at 10.8%.
The same measure for `Cc1cccc(OC(=O)c2cccnc2)c1`: 9.63%; for `C#CCNc1c(C)c(C)nc2ncnn12`: 8.1%.
For the compound `FC(F)Sc1ccc(Nc2ncnc3nc[nH]c23)cc1`, the “hERG current change (%, negative = inhibition) at 1uM” value is recorded as 0.122%.
Regarding `COCC(C)n1c(SCC(=O)Nc2sccc2C(N)=O)nc2ccccc2c1=O` (centres unmarked), the “hERG current change (%, negative = inhibition) at 1uM” value amounted to 4.61%.
On to `O=c1[nH]c(CN2CCN(c3ccc(F)cc3)CC2)nc2ccccc12`, for which the “hERG current change (%, negative = inhibition) at 1uM” value worked out at 5.63%.
For the compound `O=C1CC(C(=O)Nc2ccccc2)S/C(=N\N=C\c2ccco2)N1` (centres unmarked), the “hERG current change (%, negative = inhibition) at 1uM” value was -1.56%.
`CNC(=S)N1CCC(NC(=O)C23CC4CC(CC(C4)C2)C3)CC1`: the “hERG current change (%, negative = inhibition) at 1uM” value worked out at 7.36%.
Next, `COc1ccc(NC(=O)c2c(NC(=O)CCC(=O)O)sc(-c3ccccc3)c2C)cc1`: 10%; `O=C(Nc1nc(-c2ccccc2)cs1)c1ccc2c(c1)S(=O)(=O)c1ccccc1C2=O`: 21.4%; `CC(C)CC(=O)c1c[nH]c(C(=O)O)c1`: 13.5%.
For `COc1ccc(CCNC(=O)CSc2ncn[nH]2)cc1`, the “hERG current change (%, negative = inhibition) at 1uM” value is reported as -7.86%.
Next, `Cn1c(=O)c(C(=O)NCCCc2ccccc2)c(O)c2ccccc21`: 11%; `O=C(NCc1cccs1)C1CCCN1C(=O)Nc1cccc(F)c1` (centres unmarked): 8.78%; `COCCNC(=O)C(C)Oc1ccccc1` (centres unmarked): 4.2%.
Next, `CC(=O)NCCC(=O)Nc1ccc(C)c(F)c1`: 8.93%; `CC1=CC(=O)C2=C(C)CC[C@@H]3[C@H](OC(=O)[C@H]3C)[C@@H]12`: 8.08%; `Cc1c(NC(=S)N/N=C/C=C/c2ccccc2)c(=O)n(-c2ccccc2)n1C`: 8.56%.
Next, `COc1ccccc1N(/N=C1\Sc2ccccc2C1=O)C(C)=O`: 3.78%.
Take `Cc1ccc(S(=O)(=O)N/N=C/c2ccc3nccnc3c2)cc1`: the “hERG current change (%, negative = inhibition) at 1uM” value was found to be 14.7%.
In the case of `COc1ccc(Cl)cc1NC(=S)N(CCN1CCOCC1)C1CCN(C(C)=O)CC1`, the “hERG current change (%, negative = inhibition) at 1uM” value is 11.1%.
As to `CN(Cc1cccs1)C(=O)c1ccc(S(=O)(=O)N2CCCCC2)cc1`, the “hERG current change (%, negative = inhibition) at 1uM” value is listed as 5.49%.
Next, `CCc1cc(CNC(=O)c2cc(COc3ccc(C)nc3)on2)on1`: 13.2%; `CCOc1ccc2oc(C(=O)N3CCN(Cc4ccccc4)CC3)c(C)c2c1`: 11.9%.
The same measure for `COc1ccccc1N1C(=O)c2ccccc2NC1C(OC)OC` (centres unmarked): 16.2%; for `CNC(=O)c1ccc(NC(=O)C2CCN(c3ncnc4sc(C)c(C)c34)CC2)cc1`: 11.2%.
The same measure for `CC(=O)c1cccc(NC(=O)Cn2c(=O)oc3cc(S(=O)(=O)N4CCCC4)ccc32)c1`: 3.4%; for `COC/C=C/C1=CC2=CC(=O)C(C)(OC(=O)c3cnc4ccccc4n3)C(=O)C2=CO1` (centres unmarked): 17.6%.
Turning to `O=C(NC1CC2CCCC(C1)N2C(=S)Nc1ccccc1)C1CC1` (centres unmarked), the “hERG current change (%, negative = inhibition) at 1uM” value is given as 12.6%.
For `Cn1c(SCC(=O)Nc2ccccc2F)nnc1-c1cc2ccccc2o1`, the “hERG current change (%, negative = inhibition) at 1uM” value is on record as -7.25%.
Next, `Cn1ccnc1SCC(=O)c1ccc2ccccc2c1`: 5.87%.
For `N#CC1=C(N)N2C(=C(C#N)C13CCCC3)Nc1ccccc12`, the “hERG current change (%, negative = inhibition) at 1uM” value is listed as 11.5%.
Regarding `COC(=O)c1ccccc1NC(=O)Oc1ccc(F)cc1`, the “hERG current change (%, negative = inhibition) at 1uM” value worked out at 0.577%.
Regarding `O=C(O)/C=C/c1ccc(OCc2cccc(F)c2)cc1`, the “hERG current change (%, negative = inhibition) at 1uM” value is 18.4%.
With `Cc1ccc(-n2c(C)cc(C(=O)CSc3nnnn3C)c2C)cc1`, the “hERG current change (%, negative = inhibition) at 1uM” value was 1.85%.
Next, `Cc1ccc(CNS(=O)(=O)c2cc3c(cc2C)NC(=O)CO3)cc1`: -9.05%.
Next, `CCCCN(C(=O)CCC(=O)Nc1cc(C)on1)C(C(=O)NC1CCCC1)c1ccccc1OCC` (centres unmarked): 1.81%; `CCN(C(=O)COc1cc(=O)n(C)c2ccccc12)c1cccc(Cl)c1`: -2.55%; `N#Cc1ccc[n+](CC(=O)c2ccc(NC(=O)c3ccccc3)cc2)c1.[Br-]`: 0.763%.
For `CCOc1ccc(Br)cc1/C=N/O`, the “hERG current change (%, negative = inhibition) at 1uM” value came to 8.41%.
Next, `Cc1nc(-c2cc(C#N)c(Sc3ccc(Cl)cc3Cl)nc2C)cs1`: 9.11%.
